In the RNAGym collection of RNA variant scans (doi:10.7554/elife.90254):
Read counts are not given, so values of variants with three or more changes are uncertain.

B1: LINE1-mini (parent)
chain: GGCAGAGCUCAACACAGCGUGGCAAAGUGGCUGUGGCUAGACUGCC

Variants of: B1
Test: self-cleavage, relative activity (ratio to wild type); higher = more cleavage; in vitro, sequencing; the parent is a self-cleaving ribozyme

Variant	self-cleavage
A16C G29U G33C	0.04
A6G G40C C46G	0.02
C10A G40U C46G	0.01
C13A C18A A25G	0.06
G17A U20G G30U C37G	0.01
G5C U9A G21A U28A U34C	0.42
G2A G27U G30U C31A	1.16
C3A U34C A39U	0.06
G1C A14U G40C G44U	0
U9G C13A G27A U28G	0.03
G27A G30A G35C	0.17
G17A U28A G35U	0.04
A12U A16G G30U	0.15
G22U A24G G35C	0.02
C15A G17A G29A	0.11
C13A C15U U32A A39C A41G	0.26
C3U A25G A26C G27A	0.02
C23A A24U G27A U34A	0.24
G2C G27U C46U	0.12
C10A A11G G36U C37U	0.02
C8G G19C U20A G29C C31G G33A U34A C37A G40C	0

Variant	self-cleavage
U9A C10U G30A	0.05
C3G C23G U34C	0.07
C10A A12C A16U G19C G29U U38C G40U	0.02
G2C U28G G36C	0.08
A14G A16C G19U C23A C45G	0.16
G2C G30A C37G C46U	0.01
G2U G29U C31U U43A G44C	0.01
G19A A24G A26C U28A	1.13
A24C U28G C42A	0.16
C15U G27A U38A	0.28
G21U G33A C46U	0.11
C13U C23A A39G	0.1
C3A C31A G35A	0.04
A16C G19A A24C G27A U28C U32A	0.03
G7A G19U G40U C46G	0.34
G7C C10A U20C	0.03
A16C C18U G27C	0.14
C3U G5A C18A G36U	0.04
G7U G36U U43G G44U	0.02
A11U G17U A39G	0.02
G1A C3G C15A G19U G40A	0.15

Variant	self-cleavage
G21C C31G G40A	0.02
A4G A6G A26G G35A G44C C46A	0.02
A4C C15U A16C C46A	0.05
C3A U20A G36C C37A C46G	0.28
A12C C23U G33C G40U	0
C18U G22C G36U	0.31
G35C U43A C46U	0.03
C3A G5U G7U C8U G35A	2.67
G1A C3G A12C G35U A39C	0.04
A26C G40U G44A	0
A11G C13G G19C C42U U43G	0.01
G2U G5U U9G C13A A26C G30C U38A C46A	0.01
G1A A16U C37U	0.04
A14G U20C C37U	0.02
G2A A11G A14U C46G	0.08
G2A C18U A41U	0.24
A4C G19C A24U A25U G29C U32A	0.02
G27C C37A C46G	0.02
C13G A16C G29A A41C	0.07
U9G G19A C31A	0.01
C13G C18A G21C G36U	0.03

Variant	self-cleavage
G5C A6U U9G	0.35
U9G U34C G36U A41U C42G U43A	0.03
G22C A26U C37A	0.02
C18U A25C U43C	0.1
G5U A6U C8U A24G C37U C45G	0.51
C23U A25G C31U U32C	0.14
A6U A16U G27U	0.2
G1A C3G C10A A12U	0.04
G7U U9G A12U A24U G29A	0.04
A12G C18G G27A U43A G44A	0.03
A6U C15U C45U	0.62
A6U A26C U28A	0.67
A4U U9G A12G G44A	0.01
G5U U28A G30U	0.05
A12C C13U A25C G27U G29C U34C	0.01
A4U C23G G36A	0.01
A4U G5U U9G A14G C45G	0.11
C8U G30U G33C G35C A41C	0.05
G33A C42A U43C	0.17
C15A C31A C37A U43A	0.1
A24G G40C C45U	0.1
